Experimental findings from the supplement of paper PMC9446081 are described below.

The campaign covered roughly 39,000 compounds. About 220 (0.56%) showed activity. This is one part of the list.
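Also: static incubation at 37 °C against the wild-type strain, values averaged over two biological replicates.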

The experiment has as its system Escherichia coli K-12 BW25113. Put plainly: relative growth (OD600 normalised to plate interquartile mean) (fraction); higher = less growth inhibition, active = 0.2 or less. The settings on record: 50 µM; LB; incubation time: overnight (16-24 h).
As to `Cc1noc(C)c1NC(=O)N[C@@H]1C=C[C@@H](CC(=O)NCCCN(C)C)O[C@@H]1CO`, the relative growth was inactive: 0.98.
Turning to `C[C@@H]1CN([C@@H](C)CO)C(=O)c2cc(NC(=O)C3CC3)ccc2O[C@@H]1CN(C)Cc1ccc(C(=O)O)cc1`, the relative growth is inactive: 0.932.
`C[C@@H]1CN([C@@H](C)CO)S(=O)(=O)c2ccc(C#CC3(O)CCCC3)cc2O[C@@H]1CN(C)C(=O)Cc1cccnc1`: the relative growth was inactive: 1.01.
For `CCCC#Cc1cnc2c(c1)C(=O)N([C@@H](C)CO)C[C@H](C)[C@H](CN(C)S(=O)(=O)c1cn(C)cn1)O2` the value was inactive: 0.987; for `C[C@@H]1CN([C@@H](C)CO)C(=O)c2cccc(NC(=O)C3CCOCC3)c2O[C@H]1CN(C)S(=O)(=O)c1ccc(Cl)cc1`, inactive: 0.99; for `CN1CCN(C(=O)C[C@H]2CC[C@@H]3[C@H](COC[C@@H](O)CN3Cc3ccc4c(c3)OCO4)O2)CC1`, inactive: 0.969.
Consider `C[C@@H]1CCCCO[C@@H](CN(C)Cc2ccc(C(F)(F)F)cc2)[C@@H](C)CN([C@H](C)CO)C(=O)c2cc(NC(=O)c3ccccc3)ccc2O1`, for which the relative growth was inactive: 1.01.
The result for `COc1ccc(NC(=O)N(C)C[C@@H]2OCCCC[C@@H](C)Oc3ccc(NC(=O)C4CCCCC4)cc3C(=O)N([C@H](C)CO)C[C@H]2C)cc1` reads inactive: 1.03; that for `Cc1ccc(S(=O)(=O)Nc2ccc3c(c2)C(=O)N([C@H](C)CO)C[C@H](C)[C@@H](CN(C)Cc2ccc(C(=O)O)cc2)OCCCC[C@H](C)O3)cc1`, inactive: 0.998.
On to `CC(=O)Oc1cncc(C(=O)O)c1`, for which the relative growth was inactive: 1.02.
In the case of `C[C@@H]1CN([C@@H](C)CO)C(=O)c2ccccc2-c2ccccc2CO[C@@H]1CN(C)C(=O)Nc1cccc(C(F)(F)F)c1`, the relative growth is inactive: 1.02.
For `Cc1ccc(S(=O)(=O)Nc2ccc3c(c2)CC(=O)N([C@H](C)CO)C[C@H](C)[C@H](CN(C)C(=O)Nc2ccc(C(F)(F)F)cc2)O3)cc1` the value was inactive: 0.996; for `C[C@H](CO)N1C[C@H](C)[C@@H](CN(C)CC2CCCCC2)Oc2ccc(NC(=O)Nc3ccccc3)cc2C1=O`, inactive: 0.997; for `C[C@H](CO)N1C[C@H](C)[C@@H](CN(C)S(=O)(=O)c2cn(C)cn2)Oc2ccc(NC(=O)CCN3CCOCC3)cc2CC1=O`, inactive: 0.983.
On to `Cc1ccc(S(=O)(=O)Nc2ccc3c(c2)C(=O)N([C@@H](C)CO)C[C@H](C)[C@H](CN(C)S(C)(=O)=O)O3)cc1`, for which the relative growth was inactive: 0.95.
The result for `O=C1NC(=O)[C@@H](c2ccccc2)N1` reads inactive: 1.01.
The result for `C[C@@H]1CN([C@@H](C)CO)C(=O)c2cc(C#Cc3cccnc3)cnc2O[C@H]1CN(C)S(C)(=O)=O` reads inactive: 0.897; that for `COc1ccc(S(=O)(=O)N(C)C[C@H]2Oc3ccc(NC(=O)C4CC4)cc3C(=O)N([C@@H](C)CO)C[C@@H]2C)cc1`, inactive: 1.01; that for `COc1ccc(S(=O)(=O)N(C)C[C@H]2Oc3ccc(NS(=O)(=O)c4cccs4)cc3C(=O)N([C@@H](C)CO)C[C@H]2C)cc1`, inactive: 1.04.
Take `CC[C@@H](C)NCc1ccsc1`: the relative growth is inactive: 0.977.
The result for `Cn1cnc([N+](=O)[O-])c1Sc1[nH]cnc2ncnc1-2` reads inactive: 1.03; that for `Cc1noc(C)c1NC(=O)Nc1ccc2c(c1)C(=O)N([C@@H](C)CO)C[C@H](C)[C@H](CN(C)S(=O)(=O)c1ccc(F)cc1)OCCCC[C@@H](C)O2`, inactive: 1.01; that for `C[C@@H]1CN([C@@H](C)CO)C(=O)c2cc(NC(=O)CCN3CCOCC3)ccc2O[C@H]1CN(C)S(=O)(=O)c1cccs1`, inactive: 1.01.
For `CC(C)NC(=O)N(C)C[C@H]1Oc2ccc(NS(=O)(=O)c3ccccc3)cc2CC(=O)N([C@@H](C)CO)C[C@H]1C` the value was inactive: 0.994; for `O=C(NCC1CC1)[C@@H]1[C@@H](CO)[C@@H]2Cn3c(cccc3=O)[C@H]1N2C(=O)c1cccnc1`, inactive: 0.99.
Regarding `C[C@@H]1CN([C@H](C)CO)C(=O)c2cccc(NC(=O)CCCCCC(=O)Nc3ccccc3N)c2O[C@H]1CN(C)C(=O)Nc1ccc(F)cc1`, the relative growth is inactive: 1.01.
Consider `C[C@@H]1CCCCO[C@H](CN(C)C(=O)Nc2ccccc2)[C@H](C)CN([C@H](C)CO)C(=O)c2cc(NC(=O)c3ccccc3)ccc2O1`, for which the relative growth was inactive: 1.02.
For `C[C@H](CO)N1C[C@H](C)[C@@H](CN(C)CC2CCCCC2)Oc2c(NC(=O)c3cnccn3)cccc2C1=O` the value was inactive: 1.01.
For `COC(=O)C1=COC(OC2OC(CO)C(O)C(O)C2O)C2C(C)CC(=O)C12` (stereo not given) the value was inactive: 1.11; for `CC(=O)N1[C@H](CO)[C@@H](c2ccccc2)[C@@H]1CNC(=O)CN1CCOCC1`, inactive: 0.998.
The result for `Cc1noc(C)c1NC(=O)Nc1cccc2c1O[C@@H](CN(C)C(=O)Nc1ccc(C(F)(F)F)cc1)[C@@H](C)CN([C@@H](C)CO)C2=O` reads inactive: 0.964; that for `OC[C@@H]1Cc2ccccc2CN1`, inactive: 0.997; that for `CN1C(=O)c2cc(NC(=O)Cc3cccs3)ccc2OC[C@H]2O[C@H](CC(=O)NCc3ccc(-c4ccccc4)cc3)CC[C@H]21`, inactive: 1.02.
For the compound `C[C@H]1CCCCO[C@H](CN(C)C(=O)Nc2cccc3ccccc23)[C@@H](C)CN([C@@H](C)CO)C(=O)c2cc(NC(=O)CCCN(C)C)ccc2O1`, the relative growth is inactive: 0.979.
In the case of `COc1ccc(S(=O)(=O)N(C)C[C@@H]2OCCCC[C@@H](C)Oc3ccc(NC(=O)Nc4cccc5ccccc45)cc3C(=O)N([C@H](C)CO)C[C@@H]2C)cc1`, the relative growth is inactive: 1.03.
On to `C[C@@H]1CN([C@@H](C)CO)C(=O)Cc2cc(NS(=O)(=O)c3cn(C)cn3)ccc2O[C@H]1CN(C)C(=O)Nc1ccc(F)cc1`, for which the relative growth was inactive: 0.991.
For `Cc1noc(C)c1NC(=O)Nc1ccc2c(c1)C(=O)N([C@H](C)CO)C[C@@H](C)[C@@H](CN(C)Cc1ccc(Oc3ccccc3)cc1)O2` the value was inactive: 1.03; for `C[C@H]1CN([C@@H](C)CO)C(=O)Cc2cc(NC(=O)CCN3CCOCC3)ccc2O[C@@H]1CN(C)CC1CCCCC1`, inactive: 0.979.
With `C[C@@H]1CCCCO[C@@H](CN(C)Cc2ccncc2)[C@H](C)CN([C@@H](C)CO)C(=O)c2cc(NC(=O)Nc3ccc4c(c3)OCO4)ccc2O1`, the relative growth was inactive: 0.995.
Consider `Cc1ccc(S(=O)(=O)Nc2ccc3c(c2)C(=O)N([C@H](C)CO)C[C@H](C)[C@H](CN(C)C(=O)CCC(F)(F)F)OCCCC[C@H](C)O3)cc1`, for which the relative growth was inactive: 1.03.
Take `CCC[C@@H]1C[C@@H](C(=O)N[C@H]([C@H]2O[C@H](SC)[C@H](O)[C@@H](O)[C@H]2O)[C@H](C)O)N(C)C1`: the relative growth is inactive: 0.928.
For `CO[C@H]1O[C@H](CO)[C@@H](OC(=O)c2ccc(Br)cc2)[C@@H]2OC(=O)[C@@H](Cc3ccc4ccccc4c3)C/C=C/C[C@H](Cc3ccc4ccccc4c3)C(=O)O[C@@H]12` the value was inactive: 1; for `CNC(=O)c1cc(S(=O)(=O)N(C)C[C@@H]2Oc3ccc(NC(=O)Nc4ccc(C#N)cc4)cc3CC(=O)N([C@@H](C)CO)C[C@@H]2C)cs1`, inactive: 0.952; for `Cc1noc(C)c1S(=O)(=O)N(C)C[C@@H]1Oc2ccc(NC(=O)CCN3CCOCC3)cc2CC(=O)N([C@@H](C)CO)C[C@@H]1C`, inactive: 1.
The result for `C[C@H]1CN([C@@H](C)CO)C(=O)c2cc(NC(=O)Cc3cn(C)c4ccccc34)ccc2O[C@@H]1CN(C)S(=O)(=O)c1cn(C)cn1` reads inactive: 0.997; that for `COCC(=O)Nc1ccc2c(c1)C(=O)N(C)C[C@H](OC)[C@H](C)CN(Cc1ccccc1OC)[C@H](C)CO2`, inactive: 1.03.
`C[C@H]1CCCCO[C@H](CN(C)C(=O)Nc2ccc(C(F)(F)F)cc2)[C@@H](C)CN([C@@H](C)CO)C(=O)c2cc(NS(=O)(=O)c3cccs3)ccc2O1`: the relative growth is inactive: 0.989.
The result for `C[C@H](O)C#Cc1ccc2c(c1)O[C@@H](CN(C)C)[C@@H](C)CN([C@@H](C)CO)S2(=O)=O` reads inactive: 1.03; that for `COCC#Cc1ccc2c(c1)O[C@H](CN(C)Cc1ccc(F)cc1)[C@@H](C)CN([C@H](C)CO)S2(=O)=O`, inactive: 1.05.
For `COc1ccc2c(=O)cc(-c3ccccc3)oc2c1OC` the value was inactive: 0.902; for `OCCc1ccc2c(c1)OCO2`, inactive: 1.02; for `COc1ccc(CN(C)C[C@@H]2OCCCC[C@@H](C)Oc3ccc(NC(=O)c4ccccc4)cc3C(=O)N([C@@H](C)CO)C[C@@H]2C)cc1`, inactive: 0.943.
The result for `O=C(C[C@@H]1C=C[C@@H](NC(=O)CN2CCOCC2)[C@H](CO)O1)NC1CCC1` reads inactive: 0.99; that for `C[C@@H]1CCCCO[C@H](CN(C)CC2CCCCC2)[C@@H](C)CN([C@H](C)CO)C(=O)c2cc(NS(=O)(=O)c3ccccc3)ccc2O1`, inactive: 0.993; that for `COc1ccc(-c2cc(=O)c3c(OC)c(OC)c(OC)cc3o2)cc1OC`, inactive: 0.93.
As for `Cc1ccc(S(=O)(=O)Nc2ccc3c(c2)C(=O)N([C@H](C)CO)C[C@@H](C)[C@@H](CN(C)S(=O)(=O)c2ccc(Cl)cc2)OCCCC[C@H](C)O3)cc1`, the relative growth is inactive: 1.06.
The result for `O=C(C[C@H]1C=C[C@H](NC(=O)C2CCC2)[C@@H](CO)O1)NCCCN1CCOCC1` reads inactive: 0.985; that for `COc1ccc(S(=O)(=O)Nc2cccc3c2O[C@@H](CN(C)S(=O)(=O)c2cn(C)cn2)[C@H](C)CN([C@@H](C)CO)C3=O)cc1`, inactive: 0.984.
The result for `C[C@@H]1CN([C@H](C)CO)C(=O)c2cc(NC(=O)c3ccncc3)ccc2O[C@H]1CN(C)S(=O)(=O)c1ccc(F)cc1` reads inactive: 0.924.
With `C[C@@H]1CN([C@H](C)CO)C(=O)c2cc(NC(=O)Nc3cccc4ccccc34)ccc2O[C@@H](C)CCCCO[C@H]1CN(C)S(=O)(=O)c1cccs1`, the relative growth was inactive: 1.04.
